Experimental data reported in paper PMC4336329 (PLoS ONE, 2015).
Among all 310,000 compounds or so, about 2,200 (0.71%) showed an effect of 50% or more. The effect is printed as a negative number. The list shows a part of the results.

target: human ether-à-go-go-related gene (hERG) potassium channel (human, UniProt Q12809); assay: primary screen, population patch clamp on CHO cells stably expressing hERG
Sequence (Q12809 whole entry, looked up): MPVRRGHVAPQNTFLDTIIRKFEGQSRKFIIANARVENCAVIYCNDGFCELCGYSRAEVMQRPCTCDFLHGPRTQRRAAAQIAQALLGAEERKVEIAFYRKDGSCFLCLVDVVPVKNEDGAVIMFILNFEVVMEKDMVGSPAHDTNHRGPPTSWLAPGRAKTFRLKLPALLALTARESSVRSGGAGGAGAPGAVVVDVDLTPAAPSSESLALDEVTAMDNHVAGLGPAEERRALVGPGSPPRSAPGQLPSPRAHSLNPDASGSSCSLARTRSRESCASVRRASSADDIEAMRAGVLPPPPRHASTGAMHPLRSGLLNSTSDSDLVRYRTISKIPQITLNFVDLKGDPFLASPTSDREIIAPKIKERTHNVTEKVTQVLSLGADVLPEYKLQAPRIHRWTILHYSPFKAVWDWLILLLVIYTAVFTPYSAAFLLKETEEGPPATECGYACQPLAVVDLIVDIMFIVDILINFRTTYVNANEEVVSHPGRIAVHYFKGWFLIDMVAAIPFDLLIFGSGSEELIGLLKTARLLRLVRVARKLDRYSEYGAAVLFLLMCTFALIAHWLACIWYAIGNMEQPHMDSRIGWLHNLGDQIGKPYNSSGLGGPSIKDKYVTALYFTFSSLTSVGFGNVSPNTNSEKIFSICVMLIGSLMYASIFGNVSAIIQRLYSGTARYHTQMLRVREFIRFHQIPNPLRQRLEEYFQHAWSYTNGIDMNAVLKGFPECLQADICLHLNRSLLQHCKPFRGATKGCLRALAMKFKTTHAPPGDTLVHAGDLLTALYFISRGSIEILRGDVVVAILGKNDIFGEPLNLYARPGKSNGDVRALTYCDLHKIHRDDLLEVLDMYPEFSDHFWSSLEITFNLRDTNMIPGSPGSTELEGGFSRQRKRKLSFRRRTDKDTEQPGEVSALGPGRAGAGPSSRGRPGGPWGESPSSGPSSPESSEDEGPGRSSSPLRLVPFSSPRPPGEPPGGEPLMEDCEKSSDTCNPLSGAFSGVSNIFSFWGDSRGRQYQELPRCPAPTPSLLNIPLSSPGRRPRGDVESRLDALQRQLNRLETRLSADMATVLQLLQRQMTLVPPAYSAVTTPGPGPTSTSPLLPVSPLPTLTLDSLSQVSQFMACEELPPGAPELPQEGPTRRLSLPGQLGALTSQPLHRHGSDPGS

SMILES | hERG current change (%, negative = inhibition) at 1uM
COc1ccc(S(=O)(=O)N2CCCCCC2)cc1NC(=O)CCCOc1ccccc1 | 6.66%
Cc1csc(NC(=O)c2cccc(C)c2C)n1 | 12.4%
COc1ccc(/C=C(/C#N)C(=O)Nc2cccc(C)c2C)cc1C(=O)O | 13.2%
COC(=O)c1cccc(N(C(=O)CNC(=O)c2ccco2)C(C(=O)NC2CCCC2)c2ccco2)c1 (centres unmarked) | 13.1%
COc1ccc(-c2ccc(=O)n(Cc3cc(=O)n4ccccc4n3)n2)cc1 | -1.7%
NC(=O)[C@@H]1CCCNc2c(F)cc([N+](=O)[O-])cc2C(=O)N[C@@H](CCC(=O)O)C(=O)N[C@@H](CO)C(=O)N1 | 6.41%
C/C(CC(=O)Nc1ccc(Cl)cc1Cl)=N\NC(=O)c1cnccn1 | 12%
CC(C)N1CCN(Cc2cccc([N+](=O)[O-])c2)CC1 | 9.88%
CSc1nnc(-c2ccncc2)n1CCCN1CCCC1=O | 12.2%
O=C(CCN1CCOCC1)NCC(=O)Nc1ccc(Br)cc1C(=O)c1ccccc1 | -17.6%
Cc1cnnn1-c1cccc([N+](=O)[O-])c1 | -2.85%
O=C(NC1(C(F)(F)F)NC(=O)N(Cc2cccnc2)C1=O)c1ccncc1 (centres unmarked) | 18.1%
COc1ccccc1N/C(=N/S(=O)(=O)c1ccc(C)cc1)c1ccc(Cl)cc1 | -15.5%
CCOC(=O)c1ccccc1NC(=O)COC(=O)CCNS(=O)(=O)c1ccccc1 | 11.2%
COc1cc(/C=C/C(=O)c2ccc3c(c2)OCO3)cc(Cl)c1O | 5.7%
COc1ccc([N+](=O)[O-])cc1NC(=O)CN(C)S(=O)(=O)c1ccccc1 | -13.8%
CCOc1ccc(N2C(=O)CC(N3CCN(c4ccc(C(=O)c5ccncc5)cc4)CC3)C2=O)cc1 (centres unmarked) | -4.77%
Cc1ccc(-n2nc(-c3ccco3)cc2C(=O)O)cc1 | 10.2%
CN(C)c1ccc(C(=O)OCC(=O)NCCNC(=O)COC(=O)c2ccc(N(C)C)cc2)cc1 | 8.13%
CN1CCCC(OC(=O)c2cc(Cl)ccc2Cl)C1 (centres unmarked) | 9.58%
O=C(NCc1cccnc1)C(=O)N/N=C/c1ccccc1[N+](=O)[O-] | -7.87%
COCCNC(=O)C(=O)N/N=C/c1ccc(C(=O)OC)cc1 | 15.7%
O=C(NCCSCc1ccco1)Nc1ccccc1 | 18.6%

SMILES | hERG current change (%, negative = inhibition) at 1uM
CCN(CC(=O)Nc1c(F)cccc1F)C(=O)CCSc1ccc(F)cc1 | 13.7%
Cn1c(Oc2ccccc2NCc2cccc(Br)c2)cc(=O)n(C)c1=O | 6.2%
C=C/C(C)=C/CC1C(=C)CCC2C(C)(C(=O)O)CCCC12C (centres unmarked) | 11%
CC(C)c1nnc(NC(=O)CCC(=O)Nc2ccc3cn[nH]c3c2)s1 | 10.6%
CCCCNC(=O)NC(C(N)=O)P(=O)(OCC)OCC (centres unmarked) | 10.6%
COC(=O)c1ccccc1Oc1c(F)c(F)nc(N2CCOCC2)c1F | -1.26%
COC(=O)C1=C(c2ccc3ccccc3c2)C[C@@H]2CC[C@H]1N2C | 11.5%
Cc1cccn2c(=O)nc(SCC(=O)Nc3cccc4ccccc34)nc12 | 1.58%
COc1ccc(C(C(=O)NC2CCCCC2)N(Cc2cccs2)C(=O)Cc2c[nH]c3ccccc23)cc1OC (centres unmarked) | -12.4%
COC(=O)c1ccc(CSc2nc3ccc(S(N)(=O)=O)cc3[nH]2)cc1 | 11.6%
COc1ccc(F)c(CN2CCC(n3nccc3NC(=O)CCCc3ccccc3)CC2)c1 | -36.3%
c1ccc(-n2c(Sc3cnccn3)nnc2-c2cccs2)cc1 | -13.3%
CSC(=NNC(=O)c1ccccc1O)SC | -5.89%
CCOC(=O)c1c(CC(C)C)csc1NC(=O)CCl | 6.26%
Cn1c(=O)n(Cc2ccco2)c(=N)c2c3c(sc21)CCC3 | -29.3%
Cc1nn(-c2ccccc2)c2sc(C(=O)NNC(=O)COc3ccccc3)cc12 | 6%
OCC[C@@H]1C[C@@H](O)[C@H](O)[C@]2(CCCO2)O1 | -0.555%
COc1ccc(S(=O)(=O)N(C)CC(=O)NCc2cccnc2)cc1 | 0.722%
CCc1[nH]nc2c1C(c1ccsc1)C(C#N)=C(N)O2 (centres unmarked) | 12.5%
O=C(NCc1ccc2c(c1)OCO2)C1CCN(S(=O)(=O)c2cccc3nsnc23)CC1 | 11.8%
COc1ccc([N+](=O)[O-])cc1NC(=O)C(C)Sc1nc(C)c(C)c(C)n1 (centres unmarked) | 10.2%
O=C(Cn1cc(C(F)(F)F)cc(Cl)c1=O)NCCc1ccc(Cl)cc1Cl | 6.7%
COc1cccc(C2=NOC(C(=O)Nc3c(C)n(C)n(-c4ccccc4)c3=O)C2)c1 (centres unmarked) | 6.58%

SMILES | hERG current change (%, negative = inhibition) at 1uM
Cc1c(NC(=O)C(C)OC(=O)CCOc2ccccc2)c(=O)n(-c2ccccc2)n1C (centres unmarked) | 17.3%
Cc1ccc(/C=C/C(=O)c2nc3ccccc3[nH]2)cc1 | 4.5%
COc1cccc(C(=O)/C(C#N)=N/Nc2cccc(-c3ccnc(C)n3)c2)c1 | 3.97%
Cc1c(C)c2ccc(OCC(=O)NCCN3CCOCC3)c(C)c2oc1=O | 8.66%
CCCn1c(=O)c2ccccc2n2c(SCC(=O)c3ccccc3)nnc12 | -2.83%
O=C1OC(Nc2ccccn2)c2ccccc21 (centres unmarked) | -7.6%
O=C(/C=N\O)NCCCNCc1ccccc1 | -2.55%
CC1(C)CC(=O)C(c2c[nH]c3ccccc23)C(=O)C1 | 13.5%
CC(C)CCSc1nc(N2CCOCC2)c2c(c1C#N)CC(C)(C)OC2 | 5.79%
CCOC(=O)CNC(=S)N(Cc1cccs1)C1CCCC1 | 13.7%
O=C(Cn1ccc(NC(=O)OCc2ccccc2)nc1=O)NCc1ccccn1 | -6.25%
COc1cccc(N(C(=O)c2cnccn2)C(C(=O)NC2CCCCC2)c2ccc(Cl)cc2)c1 (centres unmarked) | 7.27%
NC(=O)c1ccc(-n2nnnc2Oc2ccc(Br)cc2)cc1 | 9.36%
CCN(C(=O)Cc1nc(N)n[nH]1)C1(C(=O)Nc2ccccc2)CCCCC1 | 9.75%
CCc1nc(N2CCN(S(C)(=O)=O)CC2)c2c3c(sc2n1)CCCC3 | 8.37%
O=C(SCC(O)C(O)CS)c1cccs1 (centres unmarked) | 1.67%
CNc1oc(C)nc1S(=O)(=O)c1ccccc1 | 10.4%
CCOC(=O)N1CCN(C(=S)Nc2ccc3nc(N4CCN(CC)CC4)cc(C)c3c2)CC1 | 2.94%
Clc1cccc(OCCCCN2CCCCC2)c1 | -4.66%
CC(=O)Nc1cccc(NC(=O)CSc2ncc(C(=O)Nc3ccc(F)cc3)c(=O)n2C)c1 | -3.89%
CCOC1(OCC)N=C(N)C2(C#N)C(c3cccc(OC)c3OC)C12C#N (centres unmarked) | 3.32%
CCn1c(=O)n(CC)c2cc(N3CCCC3)c(NC(=O)c3ccc(C)c([N+](=O)[O-])c3)cc21 | 10.6%
O=C(Oc1c(CN2CCOCC2)cc(Cl)c2cccnc12)c1ccccc1Br | 9.55%

SMILES | hERG current change (%, negative = inhibition) at 1uM
COc1ccc(-c2noc(CCC(=O)N3CCC(C)CC3)n2)cc1 | -3.61%
CCN(CC)CCNC(=S)N1CCn2c(nc3ccccc32)C1 | -5.56%
Cc1ccc(CC(=O)NC2CCSC2=O)cc1 (centres unmarked) | 16.9%
CCNC(=S)N1CCN(c2nc(CC)nc3sc4c(c23)CCCC4)CC1 | -1.92%
O=C1CCC(C(=O)N2CCCCO2)CN1Cc1cccc(C(F)(F)F)c1 (centres unmarked) | -6.21%
O=C(CCC1CCCC1)NCc1cccs1 | 20.7%
COc1ccc(OCc2nnc(SCC(=O)c3c(N)n(C)c(=O)n(C)c3=O)n2-c2ccccc2F)cc1 | 18.6%
COc1cc(NC(=O)CC(C)C)ccc1NC(=O)c1ccco1 | 8.43%
O=C(NC(=S)NC1CCSC1=O)c1ccccc1 (centres unmarked) | 13.2%
CCN(CC)C(=O)Cn1c(=O)n(-c2ccccc2)c(=O)c2c3c(sc21)CCC3 | 19%
NC(=O)c1ccc(Nc2ccc3c(c2)CCC3)c([N+](=O)[O-])c1 | 9.4%
Cc1cccc(C)c1NC(=O)C1=C(O)c2ccccc2N(C)S1(=O)=O | 15.7%
CN(Cc1nc(-c2cnccn2)no1)CC1CCN(Cc2ccccc2)CC1 | 1.08%
N#CC(C#N)=CN=c1ccn(Cc2ccc(Cl)cc2Cl)cc1 | 11.6%
COc1ccc(CC(=O)Oc2ccc(C#N)cc2)cc1 | 17.9%
C[C@]1(C(=O)NCCc2c[nH]c3ccccc23)C=C[C@@H](Cc2ccccc2)N1C(=O)c1ccccc1 | 7.98%
CC(C)(C)NC(=O)NC(=O)CN1CCc2ccccc21 | 3.59%
Cc1cc(C)nc(N/N=C/c2ccccc2)n1 | 4.71%
Cc1noc(NC(=O)c2ccccc2Cl)c1C#N | 7.33%
Cc1ccc(-c2ccc([C@H]3[C@@H]4C=CCC[C@@]4(C)C(=O)N3Cc3ccccc3)c(F)c2)cc1 | 12.2%
